Laboratory results: the RNAGym collection of RNA variant scans (doi:10.1093/nar/gkz1192)
Read counts are not given, so values of variants with three or more changes are uncertain.

B1: CPEB3 Ribozyme (parent)
chain: UAACAGGGGGCCACAGCAGAAGCGUUCACGUCGCAGCCCCUGUCAGAUUCUGGUGAAUCUGCGAAUUCUGCUGUAUAUCUC

Variants of: B1
Assay: self-cleavage, relative activity (ratio to wild type); higher = more cleavage; in vitro, sequencing
How it was run: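 Barcoded CPEB3 ribozyme mutants, produced by rounds of error-prone PCR, self-cleaved while being transcribed with T7 RNA polymerase for 5 hours at 37°C and during a subsequent 15 min DNase I step before EDTA was added. Sequencing of template-switched cDNA on Illumina gave cleaved and total reads, and DNA sequencing assigned barcodes to variants. Each variant's relative activity is its cleaved/total read fraction divided by the unmutated ribozyme's fraction, averaged across three batches. A variant needed a minimum of 5 reads.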

Variant	self-cleavage
A3G A35U C40U U48C A65G U66A	0.16
A3G A35U G42A A77U	0.29
A3G A35U G73A A75G	1.04
A3G A35U U49A A65G	0.19
A3G A35U U49A A65G U69A	0.15
A3G A35U U54C A56G	0.45
A3G A35U U67C	0.13
A3G A45C C50A U80C	0.38
A3G A45C U48C A64G	0.16
A3G A45G A47G A57G A65G U78C	0.3
A3G A45G A56U	0.24
A3G A45G U48C U58A	0.08
A3G A45G U67A	0.25
A3G A45G U72A	0.34
A3G A45U A47U C50A U58A A65G U72C	0.14
A3G A45U A56G	0.13
A3G A45U A64G	0.29
A3G A45U A64G U66A	0.27
A3G A45U U54C U72A	0.39
A3G A47G U49C A64G U67C G73C A75C	0.06
A3G A47G U51A A56U A64U	0.2
A3G A47G U60C A65G	0.34
A3G A47U U67C	0.36
A3G A56G A57U A64G	0.19

Variant	self-cleavage
A3G A56G A77G	0.88
A3G A56G U80A	1.13
A3G A57G U72G	0.52
A3G A57G U80A	1.16
A3G A64G U69C U80A	0.34
A3G A75G A77G	0.57
A3G A75G U78A	0.92
A3G C4U A28G U66G A77G	0.64
A3G C11A G53A U58C	0.1
A3G C11A U48C	0.09
A3G C11G C32A U49C	0.08
A3G C11G U26A U67C U72A	0.05
A3G C11G U26G	0.09
A3G C11G U31C A45U	0.05
A3G C11G U43G G70A	0.13
A3G C11U U25C	0.69
A3G C11U U25C A35U G73A	0.48
A3G C11U U58C	0.1
A3G C12A A13G U51C A56G U60C A65G	0.33
A3G C12A A18G	0.58
A3G C12A A57U U66C	0.21
A3G C12A A65G	0.77
A3G C12A C38G A64U	0.33
A3G C12A U43C A75U U76G	0.29

Variant	self-cleavage
A3G C12G C38G A45U A64G	0.07
A3G C12U A13G	0.81
A3G C12U A56G U58C G61A U67C U74C	0.49
A3G C14A A28U G30A U67C	0.15
A3G C14A U31A C62G A64U	0.16
A3G C14U A21G U80A	0.99
A3G C17G U69A U72A	0.13
A3G C17U A18G A28U	0.16
A3G C17U A20U U31A A64G U74A	0.3
A3G C17U U25A	0.45
A3G C17U U76C C81U	0.97
A3G C23A A64G G73U	0.08
A3G C23A U41A	0.33
A3G C23A U72A U80C	0.17
A3G C23G U25C	0.29
A3G C23U A45U A64U U67A	0.13
A3G C27A G33A A64U U76C A77U	0.07
A3G C27U A28U A56G U69C	0.43
A3G C27U U41C	0.37
A3G C29U A47U A75G	0.22
A3G C32U C40G U60G	0.13
A3G C34G U41C G55U	0.8
A3G C37A U66C	0.13
A3G C37A U69A	0.28

Variant	self-cleavage
A3G C39A U41C U80C	0.41
A3G C40U U48A U51G A56U	0.29
A3G C40U U67C U72A	0.15
A3G C44A A77U	0.31
A3G C50A A56G	0.51
A3G C68A U69C U80A	0.27
A3G G6A A18G U67C	0.22
A3G G6A A28G U67C	0.05
A3G G6A U26C C38U A57G U58C	0.06
A3G G6A U80A	0.7
A3G G6C A77U	0.23
A3G G6U U51G A57G U58C	0.45
A3G G7A G10C U54A U60C G63A U67A	0.04
A3G G7A U25G	0.14
A3G G7C U31C U41G	0.07
A3G G7U A64G U69C	0.08
A3G G7U U41C A47G G63C U80C	0.1
A3G G8A A15G C29U U41C U43A	0.39
A3G G8A A18G A20G U76C	0.27
A3G G8A A21G A65G U78C	0.15
A3G G8A A56U	0.48
A3G G8A A57G	0.27
A3G G8A U76C	0.1
A3G G8C A21G U26C	0.03

Variant	self-cleavage
A3G G8U A21G C23A A28G U41C U69A	0.06
A3G G8U G61C U74C	0.09
A3G G8U U51C	0.09
A3G G9A A18G A45C U72C	0.05
A3G G9A A20C A77G	0.59
A3G G9A A20G C29A A45C A56G	0.08
A3G G9A A35G U41C C59A	0.21
A3G G9A U58A U72C U78A	0.26
A3G G9A U76C A77G	0.13
A3G G9U A15G U41A	0.09
A3G G9U A15G U69C U76C	0.17
A3G G9U G19U U31C G61U	0.17
A3G G10A A15C A18U A28G U49C U51A	0.13
A3G G10A A18U A45U G52C U72A A77G	0.07
A3G G10A A18U U31A G52U U72A A77G	0.04
A3G G10A A35G A57U	0.22
A3G G10A U25A A28G G33U	0.08
A3G G10A U26C U31C A47G	0.12
A3G G10A U43A	0.16
A3G G10C A15U U48C G61A	0.25
A3G G10C A65G	0.44
A3G G10U A15G U43C A64G	0.37
A3G G16C A45U U48C U49C	0.37
A3G G16C A56G A75U	0.47

Variant	self-cleavage
A3G G16U C39A C81G	0.08
A3G G19C G33C A56U	0.33
A3G G19C U41C	0.07
A3G G19U C62U U76A	0.05
A3G G22C U25A	0.2
A3G G22U U31C U41A U51C A65G A77G	0.04
A3G G24A A28G U31C U54A U58C U72C	0.29
A3G G24U A35G U41A G46C U48C U74A	0.32
A3G G24U U72A A77U	0.23
A3G G30A C39U	0.41
A3G G30U A35G A56G A65G U80A	0.19
A3G G30U A57C A65G U74C	0.11
A3G G33A U72C	0.4
A3G G33C A56U U60C U78C	0.08
A3G G42A U78C	0.53
A3G G52A U66C C79G	0.49
A3G G52U A56U	0.76
A3G G63A U66C	0.6
A3G U25A C27U	0.22
A3G U25A G33U U43C U69C	0.19
A3G U25A U26C U43A U58C	0.19
A3G U25A U43C A75U U80C	0.05
A3G U25C A28G A57U U76A	0.05
A3G U25C A28G G33C C68A U78A	0.05

Variant	self-cleavage
A3G U25C A28U	0.69
A3G U25C A47G U72G	0.07
A3G U25C A65G	0.65
A3G U25C C27G U43A	0.09
A3G U25C C32U U60C U80A	0.1
A3G U25C G55U	0.61
A3G U25C U31C C39A U48C U51G U72C	0.1
A3G U25C U31C G46C U49C	0.02
A3G U25C U41A A45G U80A	0.12
A3G U25C U41A A64G U76C	0.29
A3G U25C U43C U66C U76C	0.47
A3G U25G A65G U67C U69G	0.24
A3G U26A A57G U69C	0.21
A3G U26A A77G	0.98
A3G U26A C62G	0.2
A3G U26A G30A	0.54
A3G U26A G46A A77U	0.19
A3G U26A G55C	0.57
A3G U26A U80C	0.92
A3G U26C A28C A56G	0.49
A3G U26C A28U U31C	0.29
A3G U26C A56G U66A U69A	0.14
A3G U26C A57G	0.3
